“And” between values parts separate entries of the source, which are not always exact repeats. Identical values can stand only once. Hit rate of the full screen: of about 150,000 compounds, about 540 (0.36%) showed an effect of 50% or more. The list shows a part of the results.
Tested on: Plasmodium falciparum
Assay: Primary screen in NF54 nanoGlo assay, in single point, at 2uM, 72h; a lower Z score goes with more inhibition
Format: functional, Erythrocyte
Details: timepoint 72 hour

SMILES	% Inhibition	Z score	% Inhibition (2 µM)	Z score (2 µM)
CCn1ccc2c(CN3CCC4(CC3)COC(=O)O4)cccc21	5%	-0.97		
CCCN(CC#N)C(=O)Cc1c(Cl)cccc1Cl	-7%	0.71		
CCN1CC[C@@]2(CCC1=O)CN(Cc1cccc(OC(F)F)c1)CCN2C	-3%	0.66		
CCNC(=O)N1CC(C(=O)NCc2ccccc2F)CCC1c1ccccc1 (stereo unspecified)	-16%	1.61		
CN(C)S(=O)(=O)c1ccc(COc2ccccc2-n2ccnc2)o1	2%	-0.31		
O=C(NC(c1ccc(F)cc1F)[C@H]1C[C@@H](O)C1)c1n[nH]cc1Cl (stereo partly specified)	10%	-2.02		
N#Cc1ccc(NC(=O)N2CCC[C@H](c3nnc4ccc(C(F)(F)F)cn34)C2)cc1	-11%	1.73		
O=C(Nc1ccc(CCN2CCCC2)cc1)[C@H]1CCCC12OCCO2	-9%	1.07		
CC(C)c1cc(NC(c2nccn2C)c2nccn2C)n2ncnc2n1	-7%	1.06		
Cc1ccc([C@@H](NC(=O)N2CCCC2)C(Cl)(Cl)Cl)cc1F	-9%	1.42		
Cn1cccc1CN(Cc1cccs1)S(=O)(=O)c1cccs1	3%	-0.45		
CN(CC1(C)COC1)C(=O)Cc1ccc(F)cc1Cl	-5%	0.8		
Nc1c(-n2cnnn2)cc2c(c1Br)OCCO2	2%	-0.32		
CCCCS(=O)(=O)N[C@H](c1nccn1C)C(C)C	-13%	1.66		
O=C(Nc1ccccc1)C1CCN(C(=O)c2ccc(Cl)c(S(=O)(=O)NC3CC3)c2)CC1	-38%	4.48		
Cc1ccccc1CC1(NC(=O)c2ccn(C(F)F)n2)CC1	5%	-0.67		
Cc1ccc(OCC(=O)N2CCC3(CCN(Cc4ccccc4)CC3)C2)c(C)c1	-8%	0.9		
O=C(NCC1CC1)c1ncc(Br)cc1Br	-7%	0.95		
Cc1ccc(C2CN(Cc3ccc(N(C)C)cc3)CC2CN(C(=O)C(C)C)C(C)C)cc1 (stereo unspecified)	4%	-0.39		
COCc1cnc(CN2CC[C@H](O)C23CCCC3)s1	-4%	0.43		
Cn1ccnc1CNC(=O)[C@@H]1CCc2cc(Br)ccc21	-12%	1.72		
Cc1cc(C)nc(NC(=O)c2cc3n(n2)CCCO3)n1	-30%	4.59		
Cc1cccc(-c2noc(-c3sccc3S(=O)(=O)N(C)c3ccc(F)c(F)c3)n2)c1	-6%	0.83		
NC(=O)NC(=O)C1CCC(NC(=O)c2cnn(-c3ccc(Br)cc3)c2)CC1 (stereo unspecified)	-2%	0.34		
Cc1cccc(NC(=O)C(=O)NCCn2ccnc2C)n1	1%	-0.13		
COc1ccc2c(c1)CN(C(=O)C1CC3CCC1C3)CC2 (stereo unspecified)	38%	-1.16		
CC(C(=O)NCC1CCCN(C)C1c1cccs1)n1cccn1 (stereo unspecified)	8%	-0.89		

SMILES	% Inhibition	Z score	% Inhibition (2 µM)	Z score (2 µM)
CNC(=O)Cc1csc(NC(=O)CCc2nc3ccccc3c(=O)[nH]2)n1			-18% and -16%	2.87 and 2.08
C=CC[C@@H](CO)NC(=O)COc1ccccc1C	-2%	0.41		
O=C1[C@@H]2C[C@H](O)CCN2C(=O)CN1CCc1ccccc1Cl	-4%	0.75		
Cc1ccc(-c2nc(N3CCCC[C@@H]3C)nc3ccccc23)cc1	-8%	1.25		
Cc1ccccc1Nc1nc(N)nc(CN2CCCCCC2)n1	12%	-1.18		
C[C@H]1CN(CC(F)(F)F)CCN(S(=O)(=O)CC2(C#N)CCCC2)C1	32%	-3.63		
Cc1cccc(C)c1OC[C@@H](O)CNC(C)(C)CC(C)(C)C	31%	-3.93		
O=C(COC[C@H]1CCCO1)N1CCN(c2cccc3[nH]cnc23)CC1	2%	-0.38		
COCC(C)(C)C(=O)N1C[C@@H]2NC(=O)c3ccc(OC)c(c3)OCCn3cc(nn3)CO[C@H]2C1	-11%	2.16		
CC[C@@H](Cc1ccc(C)cc1)NC(C)=O	1%	-0.3		
CCn1nc(C)cc1C(=O)N1C[C@@H]2OC(=O)N(CCCN3CCOCC3)[C@@H]2C1	-15%	1.39		
CCN1CCC[C@H](c2c(-c3ccccc3)ncn2Cc2c(C)n[nH]c2C)C1	-11%	1.29		
CC(C)(CNCc1cn(CCC#N)nc1-c1ccccc1)N1CCOCC1	4%	-0.84		
Cc1ccc(N2C(=O)c3cc(-c4cccs4)nn3C[C@@]2(C)C(=O)NC2CCCCCCC2)cc1	-11%	2.13		
Cc1ccc(N2N=NC3C(=O)N(c4cc(C)cc(C)c4)C(=O)C32)cc1 (stereo unspecified)	-12%	1.33		
COCc1nc2n(n1)[C@@H](c1ccc(O)cc1)C[C@@H](C)N2	-11%	1.46		
O=C(Nc1ccnn1C1CCCC1)c1cncc(Br)c1	-3%	0.53		
CCOC(=O)C1=C(C(=O)OCC)SC(=C2C(=S)C(C)(C)N(C(=O)CC)c3cc(OCC)ccc32)S1	-4%	0.46		
C(#Cc1cccc(-c2nc(-c3ccccc3)c(-c3ccccc3)[nH]2)c1)c1ccccc1	0%	-0.04		
COc1ccc(N2C[C@@H](C(=O)N3CC(Oc4nccs4)C3)CC2=O)cc1	-16%	2.7		
COCCN1C(=O)CC[C@@H](C(=O)NCCC(C)C)[C@H]1c1ccc(C)cc1	-2%	0.28		
CCC(NC(=O)C1Cc2ccccc21)(C(=O)O)c1ccccc1 (stereo unspecified)	-9%	1.71		
CN1CCC(O)(c2nc(-c3cccc4c3ccn4C)nn2CCO)CC1	-5%	0.68		
CC(C)(C)c1coc(CN2CCC(c3c[nH]cn3)CC2)n1	-12%	2.27		
COc1cccc(CN2CCc3c(cc(C(=O)N4CCCN(C)CC4)n3C)C2)c1	9%	-1.06		
C=C1C(C(=O)Nc2ccccc2F)C1C(=O)Nc1ccccc1F (stereo unspecified)	0%	-0.05		
